# Assay results taken from PubChem BioAssay AID1460 (National Center for Advancing Translational Sciences (NCATS), 2008).
# Hit rate of the full screen: of about 270,000 compounds, about 5,800 (2.1%) were called active. This list was built around the results that the source calls inconclusive (neither active nor inactive); the mix of calls is not that of the screen. The call rests on the fitted dose curve; in most records, active means well fitted inhibition curve with a large enough effect; inconclusive means small, poorly fitted or top-dose-only effect; inactive means flat fitted curve, though single readings scatter. Where the call is inconclusive, the potency comes from a doubtful curve fit.
# Molecular target: Microtubule-associated protein tau (Homo sapiens) (UniProt P10636)
# Experiment: qHTS for Inhibitors of Tau Fibril Formation, Thioflavin T Binding; further: nearly all actives have a fitted effect of over 55% in size
# Conditions: recombinant tau K18 P301L, heparin-induced fibrillization, ThT fluorescence; series mostly up to 57.4 µM; activity, negative = inhibition: at the top concentration
# Summary of the method: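 ThT emission at 510 nm, taken 1 hr after adding 30 uM dye, quantifies aggregates formed when 20 uM heparin acts on human tau K18 P301L for 6 hr at 37 C.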
# On the % scale 0 is the no-effect control and ±100 the full control effect; potency means the concentration at half of the fitted maximal effect; tags describe the fitted curve by direction and shape.
# Sequence of UniProt P10636 (P10636 whole entry, looked up): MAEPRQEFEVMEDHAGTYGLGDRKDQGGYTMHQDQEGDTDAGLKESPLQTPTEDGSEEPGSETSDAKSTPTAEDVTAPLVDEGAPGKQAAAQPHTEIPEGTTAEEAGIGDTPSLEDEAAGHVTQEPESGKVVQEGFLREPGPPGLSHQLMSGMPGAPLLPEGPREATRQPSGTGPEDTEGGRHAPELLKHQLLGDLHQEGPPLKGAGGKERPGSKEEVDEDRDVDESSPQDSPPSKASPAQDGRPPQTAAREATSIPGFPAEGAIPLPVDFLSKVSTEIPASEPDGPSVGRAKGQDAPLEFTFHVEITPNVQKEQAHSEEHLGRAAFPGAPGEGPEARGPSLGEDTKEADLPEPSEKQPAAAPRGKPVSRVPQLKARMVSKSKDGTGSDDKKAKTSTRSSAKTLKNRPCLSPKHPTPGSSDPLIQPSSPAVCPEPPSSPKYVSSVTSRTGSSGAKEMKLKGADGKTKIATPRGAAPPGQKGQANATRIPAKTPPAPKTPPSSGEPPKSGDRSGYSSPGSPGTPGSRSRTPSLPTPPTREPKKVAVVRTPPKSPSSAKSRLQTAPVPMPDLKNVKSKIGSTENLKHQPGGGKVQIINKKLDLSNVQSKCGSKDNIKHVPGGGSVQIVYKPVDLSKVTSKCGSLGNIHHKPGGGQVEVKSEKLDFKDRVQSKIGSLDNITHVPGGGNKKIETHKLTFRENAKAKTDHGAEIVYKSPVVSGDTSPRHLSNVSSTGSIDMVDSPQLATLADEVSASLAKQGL
SMILES,Potency,"activity, negative = inhibition"
Cc1ccc2[nH]c(O)c(N=NC(=O)CCc3ccccc3)c2c1Br,"inconclusive: 11.2 µM [inhibitor, partial curve]",
CC/C=C\C/C=C\C/C=C\CCCCCCCCCCCC(=O)O,"inconclusive: 17.8 µM [inhibitor, partial curve]",
Cc1cc2c(cc1S(=O)(=O)N1CCCCC1)OCC(=O)N2,"inconclusive: 0.199 µM [inhibitor, full curve, poor fit]",
Cc1ccc(C(=O)c2c(NC(=O)c3cccnc3)sc3c2CCCC3)cc1,"inconclusive: 22.4 µM [inhibitor, partial curve]",
CCn1ccnc1C(O)c1ccc(N(C)C)cc1 (stereo unspecified),"inconclusive: 20 µM [inhibitor, partial curve, poor fit]",
CC(=O)N1CCc2c(sc3c2c(=O)n(CCc2ccccc2)c(=O)n3Cc2ccc(Cl)cc2)C1,"inconclusive: 14.1 µM [inhibitor, partial curve]",
Cc1ccc(N2C(=O)CC(Sc3cccs3)C2=O)cc1 (stereo unspecified),"inconclusive: 12.6 µM [inhibitor, partial curve, poor fit]",
CC(C)c1ccc(S(=O)(=O)/N=C2/C=CC(=O)c3ccccc32)cc1,active: 28.2 µM,
COCCN(C(=O)Cc1cccs1)c1nnc(-c2ccncc2)s1,,inactive: -16.5%
CC(C)CC(=O)/C(=C\c1ccc(Cl)cc1Cl)n1cncn1,"inconclusive: 20 µM [inhibitor, partial curve, poor fit]",
CCOc1ccc(NC(=O)Cn2c(=O)n(-c3cccc(OC)c3)c(=O)c3c4c(sc32)CCCC4)cc1,,inactive: 5.91%
CCc1ccc(NC(=O)c2ccc3[nH]c(C)c(C)c3c2)cc1,"inconclusive: 17.8 µM [inhibitor, partial curve]",
Cc1ccc(C)c(Cn2cc(S(=O)(=O)c3ccc(Cl)cc3)c(=O)c3cc(F)ccc32)c1,,inactive: -2.66%
c1ccc(-c2ccccc2OCCOCCN2CCc3ccccc3C2)cc1,"inconclusive: 39.8 µM [inhibitor, single point]",
CCOc1ccc(N2C(=O)C(Cl)=C(Nc3ccccc3O)C2=O)cc1,active: 10 µM,
CCc1cc(C(=O)OC)c(NC(=O)CC2Nc3cc(C)c(C)cc3NC2=O)s1 (stereo unspecified),"inconclusive: 17.8 µM [inhibitor, partial curve]",
O=C(CCS(=O)(=O)c1cccs1)Nc1ccc(C(=O)Nc2ccccc2F)cc1,,inactive: 7.92%
Cc1ccc(-c2nc3sc(CCNC(=O)c4ccc(C)c(C)c4)c(C)n3n2)cc1,"inconclusive: 1.41 µM [inhibitor, full curve, poor fit]",
COC(=O)c1c(NC(=O)CN2CCC3(O)CCCCC3C2c2ccc(F)cc2)sc(C)c1C (stereo unspecified),,inactive: -17.2%
CC(/C=N/NC(=O)c1n[nH]c2c1CCC2)=C\c1ccccc1,"inconclusive: 3.55 µM [inhibitor, full curve]",
COc1ccc(C(=O)n2nc(-c3ccco3)nc2NCc2cccs2)cc1OC,"inconclusive: 17.8 µM [inhibitor, single point]",
Cn1c(SCCOc2ccc(Cl)cc2)nnc1-c1ccncc1,"inconclusive: 5.01 µM [inhibitor, partial curve]",
O=[N+]([O-])c1ccccc1/C=N/n1c(C(F)(F)F)n[nH]c1=S,"inconclusive: 20 µM [inhibitor, partial curve]",
CCc1ccc(NC(=O)CSC2=Nc3ccccc3C3=NC(CCC(=O)NCc4ccco4)C(=O)N23)cc1 (stereo unspecified),,inactive: 5.72%

SMILES,Potency,"activity, negative = inhibition"
COc1cccc2c1OCC/C2=N\NC(=O)COc1ccccc1C,"inconclusive: 22.4 µM [inhibitor, partial curve, poor fit]",
O=C(Nc1ccc(Cl)cc1)Nc1ccc2c(c1)N1CCN=C1S2,,inactive: -14.5%
CCCCOc1ccc(C(=O)C(CN2CCOCC2)c2ccccc2)cc1 (stereo unspecified),"inconclusive: 3.16 µM [inhibitor, partial curve, poor fit]",
CC(C)Oc1nc(-c2ccccc2O)nc2ccccc12,"inconclusive: 15.8 µM [inhibitor, single point]",
Cc1cc(C)n(-c2nncc(-c3ccccc3)n2)n1,"inconclusive: 39.8 µM [inhibitor, single point]",
CCOC(=O)c1ccc(NC(=O)CSc2nnc(COc3ccccc3OC)n2C)cc1,"inconclusive: 3.16 µM [inhibitor, full curve]",
CCC(=O)NC1(Cc2ccc(O)cc2)CCCCC1,,inactive: 7.2%
CN1CCN(c2ccc(NC(=O)COc3ccccc3Cl)cc2)CC1,"inconclusive: 28.2 µM [inhibitor, partial curve, poor fit]",
CC(C)=NNc1nc(-c2ccc(N3C(=O)CCC3=O)cc2)cs1,active: 17.8 µM,
COc1ccc(-c2nc(CSc3nncn4c3cc3sccc34)c(C)o2)cc1OC,,inactive: -15.6%
CC(C)N(C(=O)CSc1nnc(-c2cc3ccccc3cc2O)n1Cc1ccco1)C(C)C,"inconclusive: 39.8 µM [inhibitor, single point]",
CCOc1ccccc1CNS(=O)(=O)c1ccc2[nH]c(=O)ccc2c1,,inactive: 1.19%
Cc1ccc(C)c(Cn2c(-c3cccs3)nc3ccccc32)c1,"inconclusive: 44.7 µM [inhibitor, single point]",
Cc1ccc(C)c(CN2C(=O)N(c3cc(Cl)ccc3C)S(=O)(=O)c3ccccc32)c1,,inactive: 8.22%
CC(=O)NC(=S)NNC(=O)CCc1ccccc1,,inactive: 12.3%
CN1CCN(C(=O)c2ccc(COc3ccc(C(C)(C)C)cc3)o2)CC1,,inactive: -12.5%
COc1ccc(/C(C)=N/N=C(\C)c2ccc(OC)cc2OC)c(OC)c1,"inconclusive: 17.8 µM [inhibitor, single point]",
Cc1ccc(NC(=S)Nc2ccc3[nH]c(=O)[nH]c3c2)cc1,"inconclusive: 15.8 µM [inhibitor, partial curve]",
Cc1ccc(-n2nc3ccc(NC(=O)c4ccc5c(c4)OCO5)cc3n2)cc1,"inconclusive: 1.78 µM [inhibitor, full curve]",
COc1cc(NC(=O)c2cc3c(Cl)nc4ccccc4c3s2)cc(OC)c1OC,"inconclusive: 11.2 µM [inhibitor, partial curve]",
CC(=O)c1ccc(Sc2ccccc2N)c([N+](=O)[O-])c1,"inconclusive: 11.2 µM [inhibitor, partial curve]",
CCN(CC)CCC(=O)c1ccc(F)cc1,"inconclusive: 39.8 µM [inhibitor, single point]",
CCCCC#Cc1ccc2c(c1)COc1c3ccccc3nn1-2,"inconclusive: 3.16 µM [inhibitor, partial curve]",
CC(C)(C)C(=O)C(Cl)C(=O)Nc1ccccc1 (stereo unspecified),active: 7.08 µM,

SMILES,Potency,"activity, negative = inhibition"
NC(=O)SCC(=O)Nc1ccc(Cl)cc1,"inconclusive: 28.2 µM [inhibitor, partial curve]",
O=S(=O)(NCCCCCNS(=O)(=O)c1ccccc1)c1ccccc1,,inactive: 7.27%
CC(C)(C)c1cc(C(=O)NNc2cc(C(F)(F)F)ccc2Cl)n(Cc2ccccc2)n1,,inactive: -4.97%
CCCCN1CC2([N+](=O)[O-])C=CC(=O)C([N+](=O)[O-])(C1)C2CC(=O)c1ccccc1 (stereo unspecified),"inconclusive: 14.1 µM [inhibitor, partial curve]",
Cc1ccc(C2=Nc3ccccc3SC(c3cccc([N+](=O)[O-])c3)C2)cc1 (stereo unspecified),"inconclusive: 28.2 µM [inhibitor, partial curve]",
COc1ccc(C(=O)NC(=S)NNC(=O)c2cnccn2)cc1OC,"inconclusive: 7.08 µM [inhibitor, partial curve]",
O=C(Cc1ccccc1)Nn1c(O)c(/C=C2\C=Nc3ccccc32)sc1=S,active: 2.51 µM,
Cc1ccc(C(=O)Oc2cccnc2)cc1[N+](=O)[O-],"inconclusive: 22.4 µM [inhibitor, partial curve]",
Cc1ccc(NS(=O)(=O)c2c(C)[nH]c(=O)[nH]c2=O)c(C)c1,"inconclusive: 35.5 µM [inhibitor, single point]",
COc1cccc(Nc2sc(C(=O)c3ccc(F)cc3)c(N)c2C(=O)NCc2ccc(Cl)cc2)c1,active: 20 µM,
CCOc1ccc(CCNC(=O)CCCn2nc(C)c3sc4ccccc4c3c2=O)cc1,"inconclusive: 17.8 µM [activator, partial curve]",
O=C(Cc1ccccc1)N1CCC(C(=O)N2CCN(c3ccc(F)cc3)CC2)CC1,"inconclusive: 35.5 µM [inhibitor, single point]",
Cc1cc(=O)oc2ccc(OCC(=O)NCc3ccco3)cc12,,inactive: -9.99%
CCCCN(C)CCCNC(=O)c1cc(-c2ccc(Br)s2)nc2ccccc12,,inactive: -17%
COC(CNC(=O)c1ccc2c3c(onc13)-c1ccccc1C2=O)OC,active: 15.8 µM,
O=C(/C=C/c1ccc(F)cc1)Nc1ccc2[nH]c(=O)[nH]c2c1,"inconclusive: 3.55 µM [inhibitor, full curve]",
COc1ccc(NC(=O)CSc2nnc(NC(=O)Nc3ccc(OC)cc3)s2)cc1,,inactive: -3.92%
CCN(CCCNC(=O)CN1N=C(c2ccc(OC)cc2)CCC1=O)c1cccc(C)c1,"inconclusive: 14.1 µM [inhibitor, partial curve]",
CN(Cc1ccccc1)S(=O)(=O)c1cc(Br)cc2c1N(C(=O)C1CC1)CC2,,inactive: -6.12%
Cc1cccc2nc(CSc3ccc(Cl)cc3)cn12,"inconclusive: 12.6 µM [inhibitor, partial curve]",
Cc1cccc(N2CSC3=C(C#N)C(c4ccc(C)o4)CC(=O)N3C2)c1 (stereo unspecified),active: 14.1 µM,
O=C(COC(=O)C1CCN(S(=O)(=O)c2cccs2)CC1)c1ccc2c(c1)OCCO2,"inconclusive: 2.24 µM [inhibitor, full curve]",
CN(C)c1ccc(/C=N/NC(=S)NCc2ccco2)cc1,"inconclusive: 7.94 µM [inhibitor, full curve]",
